Test results published in publication PMC4336329 (PLoS ONE, 2015).
Hit rate of the full screen: of about 310,000 compounds, about 14,000 (4.5%) showed an effect of 50% or more. The effect is printed as a negative number. This is one part of the list.

The compounds below were run against human ether-à-go-go-related gene (hERG) potassium channel (human, UniProt Q12809) (assay: primary screen, population patch clamp on CHO cells stably expressing hERG).
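Note: peak tail current of the secondary pulse compared with the same well before compound.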

Sequence of human ether-à-go-go-related gene (hERG) potassium channel (Q12809 whole entry, looked up): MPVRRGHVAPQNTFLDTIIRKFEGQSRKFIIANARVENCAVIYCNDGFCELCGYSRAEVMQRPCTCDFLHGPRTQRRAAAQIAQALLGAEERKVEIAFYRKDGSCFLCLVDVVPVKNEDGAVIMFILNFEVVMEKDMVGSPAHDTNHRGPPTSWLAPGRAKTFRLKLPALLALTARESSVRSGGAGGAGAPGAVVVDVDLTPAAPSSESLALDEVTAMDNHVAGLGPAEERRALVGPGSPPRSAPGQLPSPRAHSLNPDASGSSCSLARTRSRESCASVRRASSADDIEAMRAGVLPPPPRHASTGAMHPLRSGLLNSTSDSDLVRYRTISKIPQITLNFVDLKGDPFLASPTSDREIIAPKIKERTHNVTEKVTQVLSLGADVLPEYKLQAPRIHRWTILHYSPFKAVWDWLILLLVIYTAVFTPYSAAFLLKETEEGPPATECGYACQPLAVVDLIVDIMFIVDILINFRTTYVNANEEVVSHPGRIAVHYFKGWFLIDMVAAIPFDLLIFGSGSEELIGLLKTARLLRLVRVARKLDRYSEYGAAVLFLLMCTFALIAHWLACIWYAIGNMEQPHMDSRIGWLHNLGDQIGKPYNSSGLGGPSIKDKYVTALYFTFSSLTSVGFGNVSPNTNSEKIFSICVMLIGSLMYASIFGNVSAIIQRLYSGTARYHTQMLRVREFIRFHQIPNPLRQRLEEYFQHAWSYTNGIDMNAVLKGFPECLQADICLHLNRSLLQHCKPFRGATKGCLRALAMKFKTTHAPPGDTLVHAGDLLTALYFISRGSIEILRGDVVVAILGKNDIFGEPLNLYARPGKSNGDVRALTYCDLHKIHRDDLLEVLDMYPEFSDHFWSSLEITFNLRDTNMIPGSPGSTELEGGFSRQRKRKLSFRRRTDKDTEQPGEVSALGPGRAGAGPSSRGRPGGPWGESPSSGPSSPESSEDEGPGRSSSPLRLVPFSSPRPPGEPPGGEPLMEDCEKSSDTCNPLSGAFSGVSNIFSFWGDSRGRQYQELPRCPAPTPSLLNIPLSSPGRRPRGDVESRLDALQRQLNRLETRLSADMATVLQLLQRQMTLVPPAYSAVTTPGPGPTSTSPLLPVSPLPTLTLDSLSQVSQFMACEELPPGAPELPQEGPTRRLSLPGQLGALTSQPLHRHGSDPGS

Compound | hERG current change (%, negative = inhibition) at 10uM [%]
CS(=O)(=O)NN1C(=O)c2ccccc2NC1c1cccc2cccnc12 (stereo not shown) | -0.225
Cc1ccc(Cl)cc1NC(=O)c1cc(NC(=O)CCCC(=O)O)ccc1N1CCCCC1 | -5.59
CCC(=Cc1ccc(CC)cn1)CC | 1.92
CCC(CC)c1nnc(NC(=O)C2CC(=O)N(C3CCCC3)C2)s1 (stereo not shown) | -2.25
O=c1oc2ccc(Cl)cc2nc1/C=C(\O)c1ccco1 | -13.6
CC(=O)N1CCN(C(=O)c2ccco2)CC1 | 28.5
Cc1c(-c2cccc(NC(=O)c3ccco3)c2)nc2ncccn12 | -13.3
NNC(=O)CSc1nnc(-c2ccccc2)n1-c1ccccc1 | 8.61
O=C(c1ccc(Cl)cc1)n1c(NCc2ccccc2)n[nH]c1=S | 17.2
O=C(CNC(=O)c1ccco1)N/N=C/c1ccc(C(=O)O)cc1 | 19.9
CSc1cccc(NC(=O)CN(C)S(=O)(=O)c2ccccc2)c1 | 0.276
COc1cccc(/C=C/C(=O)c2ccc[nH]2)c1 | 3.13
COc1ccc(-c2nc(-c3cccc(C)c3)[nH]c(=O)c2C#N)cc1 | 14.6
COc1ccc(S(=O)(=O)N2CCCCC2)cc1NC(=O)C1CCCO1 (stereo not shown) | -12.5
CS(=O)(=O)N(CCc1ccccc1)CC(=O)N1CCCCC1 | 4.29
CCOc1ccc(NC(=O)CSc2nncn2C)cc1 | 18.7
Cc1ccc(Nc2nc(N3CCN(C)CC3)nc(N)c2[N+](=O)[O-])cc1C | -4.6
CCN(CC(=O)NCc1cccs1)C(=O)c1ccc(NS(=O)(=O)c2cccc([N+](=O)[O-])c2)cc1 | -19.7
Cn1c(CNS(=O)(=O)c2ccc(Cl)cc2)n[nH]c1=S | 14.4
COC(=O)c1cc2c(ccn2C)n1C | 19.5

Compound | hERG current change (%, negative = inhibition) at 10uM [%]
CCC(c1nnnn1Cc1cccs1)N1CCN(C(=O)c2ccco2)CC1 (stereo not shown) | -36.5
CCCOc1ccc(OC(=O)c2ccc(Br)o2)cc1 | 7.2
O=S(=O)(/C=C/c1ccccc1)Nc1ccc2c(c1)OCO2 | -24.9
CCCCC(=O)Nc1ccc(C(=O)NCc2ccncc2)cc1 | 3.31
Cc1ccc(OCCCC(=O)Nc2ccc3c(c2)OCCO3)cc1 | -7.83
CN(Cc1ccc(-n2cccn2)cc1)Cc1nc(-c2cnccn2)no1 | -58.2
COc1cccc(S(=O)(=O)Nc2cccnc2)c1 | 16.4
CN(C)CCN(C(=O)C1CCN(S(=O)(=O)c2cccs2)CC1)c1nc2ccc(F)cc2s1.Cl | -31.1
CCCCC(=O)N/N=C/c1c(O)n(C2CC2)c(=S)[nH]c1=O | 1.52
Cn1c(=O)n(C)c2cc(S(=O)(=O)NCCO)ccc21 | 1.5
Cc1ccccc1NC(=S)NC1CC2CCC(C1)N2Cc1ccco1 (stereo not shown) | 0.85
CCCCCCNC(=O)CC(NS(=O)(=O)c1ccc(OC)cc1)C(C)C (stereo not shown) | -12.6
CC1(c2nnc(-c3cccc(Cl)c3)o2)CC(c2ccccc2)=NO1 (stereo not shown) | 2.88
CCc1cccc(NC(=O)[C@@H]2CCCN2C2=NS(=O)(=O)c3ccccc32)c1 | -35.1
CCOc1ccc(NC(=O)c2cccc3c2C(=O)N(CCOC)C3)cc1 | 13.5
CCCN1C(=O)/C(=C\C=C2/C=CN(CC)c3ccccc32)SC1=S | 7.49
O=C(NCCN=C1NS(=O)(=O)c2ccccc21)c1ccc2nccnc2c1 | 14.7
CC1CC(C)CN(C(=O)c2cc(-c3ccccn3)nc3ccccc23)C1 (stereo not shown) | -6.19
COc1ccccc1CN1CC(C(=O)NCc2ncccc2C)CCC1=O (stereo not shown) | -3.69
Cc1cc(C(=O)N2CCCC(C(=O)c3cccc(C(F)(F)F)c3)C2)n[nH]1 (stereo not shown) | 0.443

Compound | hERG current change (%, negative = inhibition) at 10uM [%]
Cc1cccc(C)c1NC(=O)COn1nnc2ccc(C(F)(F)F)cc21 | -3.63
CCOc1ccc2nc(NC(=O)C3CCCO3)sc2c1 (stereo not shown) | 1.55
COc1ccc(C(=O)Nc2ccc(CN3CCCCC3)cc2)cc1 | -40.3
O=C(OCc1ccccc1)C1CCCN1C(=O)c1ccccc1[N+](=O)[O-] (stereo not shown) | -8.34
C=Cn1c(N2CCOCC2)nc2c1c(=O)[nH]c(=O)n2C | -11.5
COc1cc(O)c(CC=C(C)C)c(O)c1C(=O)CCc1ccc(O)cc1 | 4.79
O=C(COc1ccccc1-c1ccccc1)N/N=C/c1cccc2ccccc12 | 0.297
C/C(CCCO)=N/Nc1ccc([N+](=O)[O-])cc1[N+](=O)[O-] | -29.4
Cc1ccc(-c2nnn(CC(=O)N(c3cccc(F)c3)C(C(=O)NC3CCCC3)c3ccco3)n2)o1 (stereo not shown) | 15.1
Cc1cc(C)n(-c2nc3ccccc3c(=O)n2OCc2ccc(F)cc2)n1 | 8.17
CCC(CC)C(=O)OCC(=O)Nc1cccc([N+](=O)[O-])c1 | -12.3
CCOc1ccc(NC(=O)C2CC(=O)N(C(C)C)C2)cc1 (stereo not shown) | 12.6
O=C(Cc1ccccc1)Nc1cccc([N+](=O)[O-])c1 | 4.54
COc1cccc2cc(C(N)=O)/c(=N/NC(=O)COc3ccc(Cl)cc3)oc12 | 14.7
COC(=O)CSc1nnc(-c2ccccc2OC)o1 | 12
CCSc1nnc(NC(=O)C2CCN(S(=O)(=O)c3ccccc3C(F)(F)F)CC2)s1 | -3.48
COc1cc(CCC(=O)OCC(=O)N(CCC#N)c2ccccc2)cc(OC)c1OC | -5.22
CC1(C)Cc2nc(NCCN3CCOCC3)c(C#N)cc2CO1 | -6.05
